Experimental data as given in publication PMC4468025 (Biochemical pharmacology, 2015).

Legend:
HT1080 cells = assay: Cytotoxicity in HT1080 cells; format: cell-based, human; details: 100 µM, data not shown
[1] = tested on: CHO DG44, HT1080 and RAW267.7 cells; assay: Cytotoxicity, cell line not specified / variety of cell lines; format: cell-based
CHO DG44 cells = assay: Cytotoxicity assay; format: cell-based, Chinese hamster; details: 24 h
cells = details: cited from earlier work

Compound | cytotoxicity in HT1080 cells (in words) (HT1080 cells) | cell toxicity (in words) ([1]; 10 µM, a variety of cell lines) | cytotoxicity in CHO cells (in words) (CHO DG44 cells; 100 µM) | cell toxicity (in words) ([1]; […]) | cell toxicity (in words) (cells) | cytotoxicity in CHO cells (in words) (CHO DG44 cells; 10 µM)
N=C(N)Nc1ccc(OC2CC(Oc3ccc(NC(=N)N)cc3)C(NC(=N)N)CC2NC(=N)N)cc1 (stereo not drawn) [compound 1g, 1,1'-(4,6-bis(4-guanidinophenoxy)cyclohexane-1,3-diyl)diguanidine] | negligible toxicity | none of which displayed significant cell toxicity | negligible toxicity |  |  | 
N=C(N)Nc1ccc(OC2CC(Oc3ccc(NC(=N)N)cc3NC(=N)N)C(NC(=N)N)CC2NC(=N)N)cc1 (stereo not drawn) [compound 1b, 1,1'-(4-((2,4-diguanidino-5-(4-guanidinophenoxy)cyclohexyl)oxy)-1,3-phenylene)diguanidine] | negligible toxicity | none of which displayed significant cell toxicity | negligible toxicity |  |  | 
N=C(N)Nc1ccc(O[C@@H]2CCC[C@H](Oc3ccc(NC(=N)N)cc3)C2)cc1 [2b, cis-1,3-bis(4-guanidinophenoxy)cyclohexane] |  |  | slight or modest cell toxicity | toxic at high doses |  | 
dec-RVKR-CMK |  |  |  |  | significant cell toxicity | 
N=C(N)Nc1ccc(OCCCOc2ccc(NC(=N)N)cc2)cc1 [compound 2a, 1,3-bis(4-guanidinophenoxy)propane] |  |  | slight or modest cell toxicity | toxic at high doses |  | 
N=C(N)Nc1ccc(Oc2cccc(Oc3ccc(NC(=N)N)cc3)c2)cc1 [compound 2c, 1,3-bis(4-guanidinophenoxy)benzene] | not viable |  | highly toxic | toxic at high doses |  | slightly toxic
N=C(N)Nc1ccc(Oc2cccc(Oc3ccc(NC(=N)N)cc3NC(=N)N)c2)c(NC(=N)N)c1 [compound 2f, 1,3-bis(2,4-diguanidinophenoxy)benzene] |  | none of which displayed significant cell toxicity | slight or modest cell toxicity | low cell toxicity |  | 
